The list shows a part of the results. Sequences were assembled here from the parent chain. Values near 0.05 are background.
B1: TEV protease; numbered along this chain (parent)
chain: MGESLFKGPRDYNPISSSICHLTNESDGHTTSLYGIGFGPFIITNKHLFRRNNGTLVVQSLHGVFKVKDTTTLQQHLVDGRDMIIIRMPKDFPPFPQKLKFREPQREERICLVTTNFQTKSMSSMVSDTSCTFPSGDGIFWKHWIQTKDGQCGSPLVSTRDGFIVGIHSASNFTNTNNYFTSVPKNFMELLTNQEAQQWVSGWRLNADSVLWGGHKVFMVKPEEPFQPVKEATQL

Variants of: B1
Experiment: raw area under fraction-flipped curve 0-4 h after induction (AUC4h, not background-subtracted), DNA-recorder readout of cleavage of the substrate (dimensionless); higher = more cleavage of the substrate by the protease variant
Conditions: temperature: 34 °C; time window: 0-4 h after rhamnose induction
Description: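 In vivo DNA recorder in E. coli TOP10(DE3) ΔrhaA at 34 °C. Each TEVp single-site mutant (parent TEVp 0) is paired with a single-site variant of the 7-mer TEVs (canonical ENLYFQ|S). The substrate sits between flexible linkers in a Bxb1-sfGFP-TEVs-SsrA fusion, so cleavage stabilises Bxb1 and speeds flipping of a recombination array, read by NGS. The value is the raw area under the fraction-flipped curve over 0-4 h after rhamnose induction (AUC4h), with ≥20 reads per time point. It is not background-subtracted; inactive controls average about 0.047.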
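Note: Bxb1 expression induced with 0.2% (w/v) L-rhamnose at OD600 near 0.5, cultures sampled hourly, flipped fraction per protease–substrate barcode pair counted by paired-end Illumina sequencing.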

| Variant | area with substrate EALYFQS | area with substrate ECLYFQS | area with substrate EDLYFQS | area with substrate EELYFQS | area with substrate EHLYFQS | area with substrate EILYFQS | area with substrate EKLYFQS | area with substrate ELLYFQS | area with substrate EMLYFQS | area with substrate EPLYFQS | area with substrate EQLYFQS | area with substrate ERLYFQS | area with substrate ESLYFQS | area with substrate EVLYFQS | area with substrate EWLYFQS | area with substrate EYLYFQS | area with substrate EFLYFQS | area with substrate EGLYFQS | area with substrate ETLYFQS |
| --- | --- | --- | --- | --- | --- | --- | --- | --- | --- | --- | --- | --- | --- | --- | --- | --- | --- | --- | --- |
| A232Q | 0.234 | 0.119 | 0.125 | 0.118 | 0.133 | 0.133 | 0.123 | 0.0892 | 0.136 | 0.0959 | 0.117 | 0.0991 | 0.11 | 0.112 | 0.0989 | 0.106 | – | – | – |
| C152H | 0.0746 | – | – | 0.0621 | – | – | – | – | – | – | 0.0502 | – | 0.0625 | 0.0603 | 0.0668 | – | – | – | – |
| H21F | 0.122 | 0.0887 | 0.149 | 0.0931 | 0.0669 | 0.0823 | 0.11 | – | 0.102 | – | 0.109 | – | 0.0932 | 0.0644 | 0.0932 | – | 0.0724 | 0.0824 | – |
| S32F | 0.111 | 0.101 | – | – | – | – | – | 0.0832 | 0.0909 | 0.121 | 0.101 | – | 0.0831 | 0.0942 | 0.0903 | 0.124 | – | 0.0784 | – |
| S16F | 0.124 | 0.0969 | 0.1 | 0.112 | – | 0.11 | 0.0665 | – | 0.103 | 0.0927 | 0.145 | 0.109 | 0.101 | 0.113 | – | – | 0.0925 | 0.0945 | – |
| D128S | 0.2 | 0.139 | – | 0.211 | – | 0.175 | 0.192 | 0.122 | 0.15 | 0.172 | 0.168 | 0.167 | 0.162 | 0.123 | – | 0.134 | – | 0.139 | 0.177 |
| V157G | 0.0642 | 0.0606 | 0.0572 | 0.0651 | 0.0553 | 0.0474 | 0.0623 | 0.0517 | – | 0.0484 | – | 0.0352 | 0.053 | – | – | – | 0.0693 | 0.0614 | 0.0519 |
| P104V | 0.115 | 0.0896 | – | – | 0.102 | 0.105 | 0.0933 | – | 0.097 | 0.0947 | 0.0939 | 0.072 | 0.0842 | 0.0793 | 0.0621 | 0.0961 | 0.0808 | 0.0627 | 0.0763 |
| S124K | 0.122 | 0.11 | 0.132 | 0.124 | 0.109 | 0.0911 | 0.164 | 0.0893 | 0.114 | 0.112 | 0.142 | 0.092 | 0.105 | 0.0975 | 0.103 | – | 0.106 | 0.0925 | 0.134 |
| N45W | 0.0596 | 0.0637 | 0.0566 | 0.0615 | 0.0527 | 0.0433 | 0.0686 | 0.0552 | – | 0.103 | 0.0527 | 0.0616 | 0.0583 | 0.0578 | 0.0585 | 0.0603 | 0.062 | 0.0539 | – |
| G150N | 0.0612 | 0.0546 | 0.0688 | 0.063 | 0.0639 | 0.0413 | 0.056 | 0.0304 | 0.0495 | 0.0576 | – | 0.0544 | 0.0467 | 0.0647 | 0.0597 | – | 0.0573 | 0.0562 | – |
| I167D | 0.0581 | 0.0521 | 0.0518 | 0.0567 | 0.0516 | 0.0419 | 0.0709 | 0.0259 | – | 0.0781 | 0.0564 | 0.0513 | – | 0.0537 | 0.0435 | – | 0.0565 | 0.0522 | 0.0411 |
